Measurements as given in patent US20230312722A1 (NONA BIOSCIENCES SUZHOU, published 2023).

What was measured:
[1] = target: T1, B7-H4 (Acro Biosystems, #B74-H82E2) (UniProt Q7Z7D3 29-258); experiment: BLI epitope competition; 1st Ab = row; competitor (2nd Ab) Control antibody 1; inhibition of the 2nd Ab signal
T1 construct: Bought protein; also called B7-H4 captured on SA sensor
T1 sequence (looked up): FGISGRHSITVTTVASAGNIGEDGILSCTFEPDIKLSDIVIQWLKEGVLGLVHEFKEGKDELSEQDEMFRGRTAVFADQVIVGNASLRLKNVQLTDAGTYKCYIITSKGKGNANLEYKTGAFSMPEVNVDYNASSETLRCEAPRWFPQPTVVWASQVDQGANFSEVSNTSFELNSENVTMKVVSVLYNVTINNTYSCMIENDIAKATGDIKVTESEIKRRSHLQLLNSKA
Procedure: (§1) Step one, acquisition of 100% signal of antibodies: B7-H4 (Acro Biosystems, #B74-H82E2-200 μg) was captured at a capture height of 0.25 nm using an SA sensor (Fortebio, #18-5019). The sensor was equilibrated in a buffer for 120 s and then immersed in each antibody diluted to 100 nM for 240 s, and the final signal of the antibody binding to B7-H4 was recorded as the 100% signal of the antibody. Step two, epitope competition experiment: B7-H4 was captured using an SA sensor at a capture height of 0.25 nm. The sensor was immersed in a primary antibody (at a concentration of 100 nM) for 240 s, and then the SA sensor was immersed in a mixture of the primary and secondary antibodies (both at a final concentration of 100 nM) for 240 s, and the difference in signals after immersion of the sensor in the antibody mixture was recorded as the signal of the antibody as the secondary antibody. The inhibition rate was calculated according to the following formula: […]

[2] = target: T2, Human B7H4 (his tag), Sino Biological #10738-H08H (human, UniProt Q7Z7D3 25-259); experiment: SPR (Biacore T200), antibody captured on Protein A, B7H4-his as analyte, 1:1 fit
T2 construct: extracellular domain; Bought protein; also called hB7H4-ECD-his
T2 sequence (looked up): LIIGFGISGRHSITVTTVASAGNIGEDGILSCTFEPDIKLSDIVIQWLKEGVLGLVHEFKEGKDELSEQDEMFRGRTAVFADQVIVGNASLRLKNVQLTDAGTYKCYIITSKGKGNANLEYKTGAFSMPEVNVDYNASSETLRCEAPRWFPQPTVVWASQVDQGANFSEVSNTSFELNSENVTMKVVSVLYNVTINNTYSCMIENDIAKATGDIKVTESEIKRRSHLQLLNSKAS
Procedure: 10×HBS-EP+ (GE Healthcare, #BR-1006-69) was diluted 10-fold and then taken as an experimental buffer. The flow rate was set at 10 μL/min, and Protein A was coupled to 4 channels of a chip CM5 (GE Healthcare, #BR-1005-30) through the following procedures: 1) the injection time was set to 800 s, and a fresh mixture of 50 mM NHS and 200 mM EDC was injected into the 4 channels in a volume ratio of 1:1; 2) Protein A was diluted to 20 μg/mL with sodium acetate (GE Healthcare, #BR-1003-50) at pH 4.5 and injected into each channel for 800 s; and 3) 1 M ethanolamine at pH 8.5 was injected for 800 s to block the remaining active carboxyl groups on the chip surface. After blocking, the instrument was equilibrated with 1×HBS-EP+buffer for 2 hours, and the final coupling level of Protein A was about 2000 RU.
A multi-cycle kinetics mode was set at Biacore T200, and each cycle included antibody capture, analyte binding and chip regeneration. […] Finally, 10 mM glycine-hydrochloric acid at pH 1.5 (GE Healthcare, #BR-1003-54) was injected at the same flow rate for 30 s to regenerate the chip.
The experimental results were analyzed using the Biacore T200 analysis software 2.0, with channel 1 subtracted as a reference channel and a 1:1 kinetic fitting model selected as an analysis model.

[3] = target: T1, B7-H4 (Acro Biosystems, #B74-H82E2); experiment: BLI epitope competition; 1st Ab = row; competitor (2nd Ab) PR002421; inhibition of the 2nd Ab signal
Procedure: as §1

[4] = target: T1, B7-H4 (Acro Biosystems, #B74-H82E2); experiment: BLI epitope competition; 1st Ab = row; competitor (2nd Ab) Control antibody 2; inhibition of the 2nd Ab signal
Procedure: as §1

[5] = target: T3, human B7H4 on the cell surface (human, UniProt Q7Z7D3 25-282); experiment: FACS on SK-BR-3 cells after 0 to 14 days in 90% human serum at 37 °C
T3 construct: whole, on cells; also called CHOK1/hu B7H4; B7H4 on SK-BR-3
T3 sequence (looked up): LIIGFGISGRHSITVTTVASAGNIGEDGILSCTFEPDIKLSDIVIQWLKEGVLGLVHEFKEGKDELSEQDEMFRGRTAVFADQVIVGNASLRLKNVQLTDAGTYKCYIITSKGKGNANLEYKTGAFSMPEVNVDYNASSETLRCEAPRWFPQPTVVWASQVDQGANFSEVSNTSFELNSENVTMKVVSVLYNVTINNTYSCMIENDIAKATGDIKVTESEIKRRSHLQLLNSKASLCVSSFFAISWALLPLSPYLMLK
Procedure: The cell density was adjusted to 1×10⁶ cells/mL. The cells were seeded in a 96-well V-bottom plate (Corning, #3894) at 100 μL/well, followed by the addition of test antibodies diluted in a 3-fold gradient at a concentration that was 2 times the final concentration, each at 100 μL/well. The cells were incubated at 4° C. for 2 h away from light. […] The cells in each well were washed twice with 100 μL of pre-cooled PBS containing 2% BSA, and centrifuged at 500 g at 4° C. for 5 minutes, and then the supernatant was discarded. Finally, the cells in each well were resuspended with 200 μL of pre-cooled PBS containing 2% BSA, and the fluorescence signal values were read using an ACEA Novocyte3000 flow cytometer.

[6] = target: T1, B7-H4 (Acro Biosystems, #B74-H82E2); experiment: BLI epitope competition; 1st Ab = row; competitor (2nd Ab) PR002418; inhibition of the 2nd Ab signal
Procedure: as §1

Competitive inhibition rate (%) [1]: 10.8%
Kd [2]: 0.921 nM
koff [2]: 0.000322 s⁻¹
kon [2]: 350000 M⁻¹ s⁻¹
Competitive inhibition rate (%) [3]: 94.8%
Competitive inhibition rate (%) [4]: 10.6%
EC50 (read off the curve) [5]: ~4 nM
Competitive inhibition rate (%) [6]: 7.12%
B1: PR002421 (antibody, human IgG1, kappa)
heavy: QVQLVQSGAEVKKPGSSMRVSCKASEDTFSSYAISWVRQAPGQGLEWMGGTAPIFGTTNYAQKFQGRVTITADKSTSTAYMELSSLRSEDTAVYYCARGGPYFDYWGQGTLVTVSSASTKGPSVFPLAPSSKSTSGGTAALGCLVKDYFPEPVTVSWNSGALTSGVHTFPAVLQSSGLYSLSSVVTVPSSSLGTQTYICNVNHKPSNTKVDKKV[human IgG1 Fc with changes not written out]
light: EIVMTQSPASLSVSPGERATLSCRASQSVSSNLAWYQQKPGQAPRLLIYGASTRATGIPARVSGGGSGTEFTLTISSLQSEDFAVYYCQQYKNWPFTFGPGTKLEIKRTVAAPSVFIFPPSDEQLKSGTASVVCLLNNFYPREAKVQWKVDNALQSGNSQESVTEQDSKDSTYSLSSTLTLSKADYEKHKVYACEVTHQGLSSPVTKSFNRGEC
notes: PTM variant/DE mutant of PR002037 (L: C87Y; Fc S239D, I332E), human IgG1; also called RP002421
